Source: PubChem BioAssay AID1345082 (National Center for Advancing Translational Sciences (NCATS), 2018)
The whole screen tested about 94,000 compounds, of which about 4,000 (4.3%) were called active. Inconclusive results, whose numbers are uncertain, are shown with a selection of clear calls. The call rests on the fitted dose curve; in most records, active means well fitted inhibition curve with a large enough effect; inconclusive means small, poorly fitted or top-dose-only effect; inactive means no such curve, though single readings can be large or run the other way. Potencies beside an inconclusive call are fits to weak or partial responses and may not hold up.

Experiment: Cytotoxic Profiling in NIH 3T3 Cell Line of Diverse Libraries Using Quantitative High-Throughput Screening; further: nearly all actives have a fitted effect of over 55% in size
Conditions: NIH 3T3 viability, CellTiter-Glo ATP luminescence, 48-72 h; activity change, negative = cytotoxicity: at 96.7 µM (top of the series) unless noted; series mostly up to 96.7 µM
Summary of the method: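 Cytotoxicity was measured by CellTiter-Glo ATP luminescence after 48 or 72 h compound exposure at 37 °C. Mouse NIH 3T3 fibroblasts were seeded at 400 cells/well and dosed by 23 nL pin transfer.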
On the % scale 0 is the no-effect control and ±100 the full control effect; potency means the concentration at half of the fitted maximal effect; tags describe the fitted curve by direction and shape.

Compound	Potency	activity change, negative = cytotoxicity	outcome
COCCN1CC(CO)C2(CCN(Cc3cccc(Cl)c3)CC2)C1 (stereo not drawn)	inconclusive: 70.8 µM [inhibitor, single point]		
COc1ccc2c(c1)C(C[C@H]1CN(C(=O)C3CC3)CC[C@H]1CC(=O)O)=NCC2		inactive: -16.6% [at 174 µM]	
Clc1ccc(-c2cnc([C@@H]3COCCN3Cc3cnc4ccccc4c3)[nH]2)s1	inconclusive: 56.2 µM [inhibitor, partial curve, poor fit]		
O=C(NCc1ccccc1)c1nc2cccnc2n(CCc2ccccc2)c1=O	inconclusive: 70.8 µM [inhibitor, single point]		
Cc1cc(C(=O)N2CCC3(CC2)N=C(CC(C)C)NC3=O)n(C)n1		inactive: -6.55%	
Cc1cc(C(=O)N2CCC[C@H](n3c(=O)n(CC4CC4)c4cccnc43)C2)n(C)n1	inconclusive: 39.8 µM [inhibitor, partial curve, poor fit]		
COc1ccccc1-n1c(=O)c(C(=O)N2CCN([S+](=O)([O-])c3c(C)noc3C)CC2)nc2cccnc21		inactive: -3.11%	
O=C(CNC(=O)c1cccc(-c2ccc(C(F)(F)F)cc2)c1)NCc1ccc(F)cc1	inconclusive: 6.31 µM [inhibitor, full curve, poor fit]		
CCCNC(=O)Cn1c(C)ccc(NC(=O)Nc2ccc(OC)cc2)c1=O	inconclusive: 70.8 µM [inhibitor, single point]		
COCC(=O)Nc1cc(C2CC2)nn1-c1ccccc1	inconclusive: 89.1 µM [inhibitor, partial curve, poor fit]		
CC(=O)N1CCN(c2nc3c(s2)CC(C(=O)NCc2cc(F)cc(F)c2)CC3)CC1 (stereo not drawn)		inactive: -17.9%	
O=C(NCc1ccccc1F)C1c2ccccc2C(=O)N(Cc2ccccc2)C12CCCC2 (stereo not drawn)	inconclusive: 50.1 µM [inhibitor, partial curve, poor fit]		
O=C(Nc1cccc(C(F)(F)F)c1)N[C@H]1CO[C@H]2[C@@H]1OC[C@@H]2n1nnnc1Oc1ccccc1		inactive: -1.39%	
COCCN1Cc2[nH]nc(-c3ccsc3)c2CC1=O	inconclusive: 100 µM [inhibitor, partial curve, poor fit]		
COC(=O)c1cccc(NC(=S)N[C@H]2CO[C@H]3[C@@H]2OC[C@@H]3n2cc(-c3ccccc3)nn2)c1	inconclusive: 39.8 µM [inhibitor, partial curve, poor fit]		
COc1ccc(-c2nnc(C[C@@H]3C[C@@H](C(C)C)[C@H](CN4CCC(C(N)=O)CC4)C=C3C)o2)cc1	inconclusive: 50.1 µM [inhibitor, partial curve, poor fit]		
CC(C)CCNC(=O)c1ccc(CN2C(=O)NC3(CCOCC3)C2=O)cc1		inactive: -7.85%	
Cc1ccc(S(=O)(=O)N2CCC(Oc3ncccc3C(=O)N(C)C)C2)cc1Cl (stereo not drawn)	inconclusive: 50.1 µM [inhibitor, partial curve, poor fit]		
CCN1C[C@H]2COc3ccc(C)cc3[C@H]2N(C(=O)c2ccccc2)CCC1=O		inactive: -23.8%	
CN(Cc1cccnc1)c1nc2c(c(=O)[nH]1)CCN(Cc1ccc(F)c(F)c1)CC2	inconclusive: 39.8 µM [inhibitor, partial curve, poor fit]		
CC(C)(C)c1nc(C(=O)NCc2ccc(F)cc2)n2ccncc12	inconclusive: 44.7 µM [inhibitor, partial curve]		

Compound	Potency	activity change, negative = cytotoxicity	outcome
COC(=O)N1CCn2c(nn(-c3ccncc3)c2=O)C1		inactive: -1.08% [at 138 µM]	
CN1C(=O)C2(CCN(Cc3ccc(F)cc3)C2)c2ccccc21 (stereo not drawn)	inconclusive: 89.1 µM [inhibitor, partial curve, poor fit]		
c1ccc(-c2cnc([C@@H]3COCCN3Cc3ccncc3)[nH]2)cc1		inactive: -2.86% [at 138 µM]	
COc1ccc(Nc2ccnc(N3CCC(C(=O)NC4CC4)CC3)n2)cc1	inconclusive: 50.1 µM [inhibitor, partial curve, poor fit]		
CNC(=O)c1cn2cc(-c3cccc(C(F)(F)F)c3)sc2n1	inconclusive: 56.2 µM [inhibitor, partial curve, poor fit]		
Cc1nn(-c2ccccc2)c2c1C(C(C)C)N(C1CCCN(C(=O)Nc3ccccc3)C1)C2=O (stereo not drawn)	inconclusive: 44.7 µM [inhibitor, partial curve, poor fit]		
CC1=C[C@@H](CN2CCN(C)CC2)[C@H](C(C)C)C[C@H]1Cc1nnc(-c2ccccc2F)o1	inconclusive: 63.1 µM [inhibitor, partial curve, poor fit]		
COc1cccc(C(=O)N2CCN(c3cc(C(F)(F)F)ncn3)CC2)c1	inconclusive: 20 µM [inhibitor, partial curve, poor fit]		
Cc1cccn2c(CC(=O)N3CCC4(CC3)c3nc[nH]c3CCN4C)cnc12			inactive
O=C(NCc1ccc(N2CCOCC2)cc1)c1cccc2c1CCN2C(=O)C1CC1	inconclusive: 50.1 µM [inhibitor, partial curve, poor fit]		
O=C(NCc1ccc2c(c1)OCO2)C1COC2(CCCCC2)N1C(=O)Cc1cccs1 (stereo not drawn)		inactive: -28.1%	
C=CCCC(CN1CCSCC1)Oc1nc(OC)cc(OC)n1 (stereo not drawn)	inconclusive: 44.7 µM [inhibitor, partial curve, poor fit]		
COCCN(C)C[C@H]1C[C@H](CO)CN(C(=O)c2ccc(SC)cc2)C1		inactive: -17.5%	
O=C1CO[C@H]2CN(Cc3ccc4c(c3)OCO4)C[C@H]2N1c1ccccc1	inconclusive: 31.6 µM [inhibitor, partial curve]		
OCC1CN(Cc2ccccc2)CC12CCN(Cc1ccccn1)CC2 (stereo not drawn)	inconclusive: 79.4 µM [inhibitor, single point]		
CC(C)n1nc(OC(C)(C)C(=O)NCc2cnccn2)c2cc(CN3CCOCC3)ccc21	inconclusive: 70.8 µM [inhibitor, single point]		
O=C1Nc2ccc(Br)cc2C(=O)N2CCN(C(=O)c3ccccc3)C[C@H]12	inconclusive: 126 µM [inhibitor, single point]		
Cc1ccsc1C(=O)C1CCCN(Cc2ccc(OC(C)C)c(CO)c2)C1 (stereo not drawn)	inconclusive: 50.1 µM [inhibitor, partial curve, poor fit]		
COc1cccc(CN2CC[C@H](c3nc4ccccc4s3)C2)c1	inconclusive: 100 µM [inhibitor, partial curve]		
CC1(c2ccccc2)N(Cc2ccccc2F)C(=O)OC12CCN(C(=O)CN1CCOCC1)CC2 (stereo not drawn)	active: 22.4 µM		
NCCCC(=O)N1CCCC(N2CCN(c3cccc(C(F)(F)F)c3)CC2)C1 (stereo not drawn)	inconclusive: 89.1 µM [inhibitor, single point]		

Compound	Potency	activity change, negative = cytotoxicity	outcome
COCCC(=O)N1CC(F)(F)C[C@H]1c1nc(-c2ccncc2)no1			inactive
O=C(NCc1ccccc1)N1CC(c2nc(CCOCC3CCCC3)no2)C1		inactive: -20.4%	
O=C(NC1CCN(c2cc(-c3cccs3)[nH]n2)C1)c1ccc(Br)cc1 (stereo not drawn)	inconclusive: 44.7 µM [inhibitor, partial curve, poor fit]		
CCNc1ncnc2sc3c(c12)CCN(S(=O)(=O)c1ccccc1)C3		inactive: -23%	
O=C(NCC(F)(F)F)C1CCCN(Cc2cccc(-c3ccc(F)cc3F)c2)C1 (stereo not drawn)	inconclusive: 50.1 µM [inhibitor, partial curve, poor fit]		
CC1(c2ccccc2)N(Cc2ccccc2)C(=O)OC12CCN(Cc1ccccn1)CC2 (stereo not drawn)	inconclusive: 89.1 µM [inhibitor, partial curve, poor fit]		
Cc1ccc(OCCN(C)Cc2cc(C#CCO)cs2)c(C)c1	inconclusive: 50.1 µM [inhibitor, partial curve, poor fit]		
COc1cccc(C(=O)N2CCC3(CC2)Cc2ccccc2NC3=O)c1	active: 35.5 µM		
C=CCn1cc2c3c(cccc31)[C@H](CC(C)C)N[C@H](C(=O)N1CCN(C)CC1)C2	active: 63.1 µM		
Clc1cccc(CN2CC[C@H](c3nc4ncccc4[nH]3)C2)c1	inconclusive: 39.8 µM [inhibitor, partial curve, poor fit]		
CC(=O)N1CCC(C(=O)NCc2nnc3ccc(-c4ccc(C)cc4)nn23)CC1	inconclusive: 50.1 µM [inhibitor, partial curve, poor fit]		
c1ccc(Cc2nnc([C@H]3CCN(Cc4ccc5c(c4)OCO5)C3)o2)cc1	inconclusive: 112 µM [inhibitor, partial curve, poor fit]		
COC[C@@H]1[C@H](NC(=O)c2cnc(-c3cccnc3)nc2C)[C@@H]2CCO[C@H]12		inactive: -4.67%	
Cc1ccc(C(=O)N2CCCC(n3cc(-c4nc(-c5ccccc5)no4)nn3)C2)cc1 (stereo not drawn)	inconclusive: 35.5 µM [inhibitor, partial curve, poor fit]		
COc1ccc(CCC(=O)N2CCC(Cc3nc(C4CCOCC4)no3)CC2)cc1		inactive: -24.9%	
CN(C)Cc1cn([C@H]2CO[C@H]3[C@@H]2OC[C@H]3OC(=O)Nc2ccc(C(C)(C)C)cc2)nn1	inconclusive: 100 µM [inhibitor, partial curve, poor fit]		
CCc1cccc(NC(=O)c2ccc3c(c2)N(CC)C2CCCCCN2C3=O)c1 (stereo not drawn)	inconclusive: 50.1 µM [inhibitor, partial curve, poor fit]		
O=C(NC1CCCC1)N1CCC(c2noc(-c3ccccc3)n2)C1 (stereo not drawn)	active: 39.8 µM		
c1ccc(-c2cnc([C@@H]3COCCN3Cc3cccnc3)[nH]2)cc1		inactive: -2.2% [at 174 µM]	
O=C(c1ccc(F)cc1)N1CCCC(n2cc(-c3nc(-c4ccccc4)no3)nn2)C1 (stereo not drawn)	inconclusive: 11.2 µM [inhibitor, partial curve, poor fit]		
COc1ccc(CN2CCOC[C@H]2c2ncc(-c3cccc(F)c3)[nH]2)cc1	inconclusive: 89.1 µM [inhibitor, partial curve, poor fit]		
